# Measurements as given in the supplement of paper PMC3334620.
# The full ranking holds about 33,000 sequences; the median of “E-score (-0.5 to 0.5)” is about -0.013, and the highest 2% start at about 0.3. This is one part of the list.
# Target: T1, Msn1 (UniProt P22148)
# T1 sequence: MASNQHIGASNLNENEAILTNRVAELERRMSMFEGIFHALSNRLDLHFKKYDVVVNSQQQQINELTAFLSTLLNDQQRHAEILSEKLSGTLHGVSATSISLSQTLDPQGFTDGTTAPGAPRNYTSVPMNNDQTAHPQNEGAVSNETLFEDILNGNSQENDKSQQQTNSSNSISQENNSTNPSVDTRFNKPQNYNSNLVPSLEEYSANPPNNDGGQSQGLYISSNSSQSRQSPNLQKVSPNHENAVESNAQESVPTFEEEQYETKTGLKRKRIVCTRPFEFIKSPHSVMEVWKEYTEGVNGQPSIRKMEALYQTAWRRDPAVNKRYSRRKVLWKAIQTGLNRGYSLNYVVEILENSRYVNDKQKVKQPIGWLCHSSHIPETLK
# Test: PBM E-score (8-mer binding enrichment) (E-score (-0.5 to 0.5)); higher = stronger / more preferred TF binding; most listed sequences are background and not binding sites
# Details: protein concentration: 200 nM; construct: GST-full length
# Procedure, shortened: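 Universal all-10-mer Agilent arrays, double-stranded by primer extension on fresh or once-stripped slides, were probed with about 100-200 nM GST-tagged yeast transcription factors made by PURExpress. Fluorescent anti-GST detected bound protein, and masliner normalised the scans. E-scores from the Universal PBM Analysis Suite were given to each ungapped eight-base word pooled with its reverse complement.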
row,Sequence,PBM E-score
1,CGGTACGC,-0.17
2,GGAGCGAA,0.0407
3,ATGGCATC,-0.0331
4,AGATTTCA,0.0525
5,GTATTTGA,0.0236
6,ATCTATTC,0.198
7,TATTAAGA,0.0769
8,TCATAGAA,0.21
9,GACGATAC,-0.0128
10,AGAGCCCC,-0.205
11,ACACTTGA,0.184
12,CCACATAC,0.0664
13,GAAAGTAC,0.177
14,GCATCATA,0.126
15,ACATAGGT,0.108
16,GACCAACA,0.176
17,ATAGAAGA,0.0763
18,ATCACGCC,-0.132
19,AGAGCGAG,-0.141
20,CCTACGCC,-0.282
21,GTAGACGA,0.115
22,ACACACCA,0.183

row,Sequence,PBM E-score
1,GATTACGC,-0.04
2,TAGTGGGA,-0.158
3,ACCCGGGG,-0.249
4,CCGAGCCA,0.0402
5,AAGTGATC,0.108
6,CTCGGTCA,0.00363
7,TCAGGAAA,0.0903
8,ATATTGGA,0.0652
9,AATTTGCT,0.0832
10,CAAATGCA,0.0952
11,GCAAATGA,-0.0127
12,CGAAAGAG,0.00829
13,TAGTATGA,0.183
14,AGCGAAAG,0.00846
15,CATTATCA,0.143
16,ACCGCTAA,0.0303
17,AGACAATA,0.428
18,GCGAGAGC,-0.149
19,AATTTAAT,0.298
20,GCTCGACA,-0.0538
21,CAGGCCTC,-0.237
22,CGAAACAC,0.181

row,Sequence,PBM E-score
1,GACTTCCC,-0.149
2,AACAAGGC,-0.114
3,CACGATTC,0.103
4,AACTTGCT,-0.128
5,TATTCCGA,0.273
6,CGCATAAC,0.0227
7,ATTACGTC,0.133
8,TACTGCAA,0.0399
9,ACCTGGAG,-0.089
10,TCCAGCCA,-0.0925
11,ACCCTTGG,-0.239
12,AGCAAGGC,-0.223
13,CCAATCGC,-0.0565
14,TACAGTGA,0.119
15,TGCAGGCA,-0.198
16,GGCATAAC,-0.0456
17,AACATGGG,0.0653
18,CTGTCGGA,0.0643
19,ACACGTGG,0.114
20,AGATGCTA,-0.125
21,AAATGCAT,0.0939
22,ATGACAGG,0.105

row,Sequence,PBM E-score
1,ACAAGTCA,0.0996
2,CCGTCTCG,-0.0947
3,GTGCCGGA,0.191
4,CTAGAGGC,-0.193
5,AGTGACGC,-0.114
6,AATATGAT,0.0991
7,GTTCCTGA,-0.147
8,CGCTTTTA,0.168
9,ATCACGGC,0.0306
10,AGTGCAGC,-0.0149
11,ACGATCGA,0.118
12,AACCACTA,-0.0982
13,GCTTAACC,-0.0324
14,GAGTAAGA,0.115
15,GGACGGGA,-0.193
16,CGCAGTAG,-0.21
17,CATGAGCC,-0.0374
18,AATCACTA,0.0532
19,ATTGGGGA,-0.137
20,TGCAGCCA,-0.0919
